# Measurements from PubChem BioAssay (NCATS).
# Where “and” joins values, the source holds several entries; their conditions need not be identical. Equal values may be shown once. The shares of active, inactive and inconclusive entries below differ from those in the screen. For some of these results: Potencies of inconclusive entries are doubtful fits and often do not repeat. Calls of active or inactive are those of the source. The call rests on the fitted dose curve; in most records, active means well fitted curve in the direction sought with a large enough effect; inconclusive means small, poorly fitted or top-dose-only effect, or another doubt; inactive means no such curve, though single readings can be large; an effect the other way counts as inactive or inconclusive.
# What was measured:
# [1] = target: Cytochrome P450 3A7 (Homo sapiens) (UniProt P24462); assay: Cytochrome P450 family 3 subfamily A member 7 (CYP3A7) small molecule antagonists: luciferase biochemical qHTS assay (AID 1963596); further: nearly all actives have a fitted effect of over 40% in size; further: potency means the concentration at half of the fitted maximal effect
# Summary of the method: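 Recombinant CYP3A7 P450-Glo luminescent assay: enzyme-proluciferin substrate mix preincubated with compound 10 min at room temperature, reaction started with NADPH regeneration system for 1 h. Luciferin detected by luminescence; ketoconazole as positive control.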
# [2] = Viability qHTS for spleen associated tyrosine kinase inhibitor (SYKi) naive MV4-11 cells (AID 1963823); settings: MV4-11 AML viability, CellTiter-Glo luminescence, 72 h; series mostly up to 45 µM; further: nearly all actives have a fitted effect of over 40% in size; further: potency means the concentration at half of the fitted maximal effect
# Summary of the method: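 CellTiter-Glo luminescence, 10 min room-temperature incubation, gave viability. Cells: naive MV4-11 (500/well), treated 72 hr at 37 C, 5% CO2.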
# [3] = Viability qHTS for spleen associated tyrosine kinase inhibitor (SYKi) drug resistant MV4-11 cells (AID 1963824); further: nearly all actives have a fitted effect of over 35% in size; further: potency means the concentration at half of the fitted maximal effect
# Summary of the method: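 SYK inhibitor-resistant MV4-11 AML cells, 500 per well, added to predispensed compounds and incubated 72 hr at 37 C, 5% CO2. Viability measured by CellTiter-Glo luminescence after 10 min at room temperature.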
# [4] = Cellular viability qHTS for adrenocortical cancer (ACC) cell line NCI-H295R (AID 1963990); settings: CellTiter-Glo ATP luminescence, 48 h; series mostly up to 46.1 µM; further: nearly all actives have a fitted effect of over 60% in size; further: potency means the concentration at half of the fitted maximal effect
# Summary of the method: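 IC50 and maximal efficacy derive from four-parameter logistic modelling of titration curves, with reads scaled between DMSO-only wells (0%) and doxorubicin hydrochloride (100% inhibition). Compounds spanned up to 46 uM over 48 h.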
# [5] = Quantitative highthroughput screen to assess conditional lethalithy of NOMO1 cells grown in RPMI1640 with dialyzed fetal bovine serum (RPMI+ds) (AID 1963877); further: nearly all actives have a fitted effect of over 30% in size; further: potency means the concentration at half of the fitted maximal effect
# Summary of the method: (§1)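 Each medium arm—HPLM with 10% dialyzed FBS, or RPMI1640 with 5 mM glucose and 10% untreated or dialyzed FBS—was screened against an 11-point, 3-fold compound titration for 48 h at 37 °C, with CellTiter-Glo luminescence as endpoint.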
# [6] = Quantitative highthroughput screen to assess conditional lethalithy of NOMO1 cells grown in Human Plasma-Like Medium with dialyzed fetal bovine serum (HPLM+ds) (AID 1963878); settings: NOMO1 AML cells in HPLM+ds, CellTiter-Glo viability, 48 h; viability: at 45.8 µM (top of the series); further: nearly all actives have a fitted effect of over 35% in size; further: potency means the concentration at half of the fitted maximal effect
# Summary of the method: as §1
# [7] = Quantitative highthroughput screen to assess conditional lethalithy of P12 Ichikawa cells grown in RPMI1640 with dialyzed fetal bovine serum (RPMI+ds) (AID 1963880); settings: Potency: P12-Ichikawa viability; further: potency means the concentration at half of the fitted maximal effect; nearly all actives have a fitted effect of over 35% in size
# Summary of the method: as §1
# [8] = Quantitative highthroughput screen to assess conditional lethalithy of SEM cells grown in Human Plasma-Like Medium with dialyzed fetal bovine serum (HPLM+ds) (AID 1963882); further: nearly all actives have a fitted effect of over 35% in size; further: potency means the concentration at half of the fitted maximal effect
# Summary of the method: as §1
# [9] = Quantitative highthroughput screen to assess conditional lethalithy of SEM cells grown in RPMI1640 with dialyzed fetal bovine serum (RPMI+ds) (AID 1963884); settings: SEM B-ALL cells, RPMI+dialyzed FBS, CellTiter-Glo viability, 48 h; viability: at 45.8 µM (top of the series)
# Summary of the method: as §1
# [10] = Cellular viability qHTS for adrenocortical cancer (ACC) cell line SW-13 (AID 1963989); settings: SW-13 ACC cells viability, CellTiter-Glo, 48 h; activity (max response): stronger effect = lower value; further: potency means the concentration at half of the fitted maximal effect; nearly all actives have a fitted effect of over 65% in size
# Summary of the method: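 Luminescent ATP read-out (CellTiter-Glo, 20 min at room temperature) measured metabolically competent SW-13 cells after 48 h compound treatment. Final concentrations spanned up to 46 uM; bortezomib served as positive control.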
# [11] = Quantitative highthroughput screen to assess conditional lethalithy of NOMO1 cells grown in RPMI1640 with untreated serum (RPMI+s) (AID 1963876); settings: NOMO1 AML cells in RPMI+serum, CellTiter-Glo viability, 48 h; viability: at 45.8 µM (top of the series); further: nearly all actives have a fitted effect of over 35% in size; further: potency means the concentration at half of the fitted maximal effect
# Summary of the method: as §1
# [12] = Quantitative highthroughput screen to assess conditional lethalithy of P12 Ichikawa cells grown in RPMI1640 with untreated serum (RPMI+s) (AID 1963881); settings: Potency: viability; further: nearly all actives have a fitted effect of over 35% in size
# Summary of the method: as §1
# [13] = Quantitative highthroughput screen to assess conditional lethalithy of SEM cells grown in RPMI1640 with unreated serum (RPMI+s) (AID 1963883); settings: SEM B-ALL cells, CellTiter-Glo viability, 48 h; viability: at 45.8 µM (top of the series); further: nearly all actives have a fitted effect of over 35% in size
# Summary of the method: as §1
# [14] = Quantitative highthroughput screen to assess conditional lethalithy of P12 Ichikawa cells grown in Human Plasma-Like Medium with dialyzed fetal bovine serum (HPLM+ds) (AID 1963879); settings: Potency: viability; further: nearly all actives have a fitted effect of over 35% in size
# Summary of the method: as §1
# Tags describe the fitted curve by direction and shape.
# UniProt P24462, sequence (P24462 whole entry, looked up): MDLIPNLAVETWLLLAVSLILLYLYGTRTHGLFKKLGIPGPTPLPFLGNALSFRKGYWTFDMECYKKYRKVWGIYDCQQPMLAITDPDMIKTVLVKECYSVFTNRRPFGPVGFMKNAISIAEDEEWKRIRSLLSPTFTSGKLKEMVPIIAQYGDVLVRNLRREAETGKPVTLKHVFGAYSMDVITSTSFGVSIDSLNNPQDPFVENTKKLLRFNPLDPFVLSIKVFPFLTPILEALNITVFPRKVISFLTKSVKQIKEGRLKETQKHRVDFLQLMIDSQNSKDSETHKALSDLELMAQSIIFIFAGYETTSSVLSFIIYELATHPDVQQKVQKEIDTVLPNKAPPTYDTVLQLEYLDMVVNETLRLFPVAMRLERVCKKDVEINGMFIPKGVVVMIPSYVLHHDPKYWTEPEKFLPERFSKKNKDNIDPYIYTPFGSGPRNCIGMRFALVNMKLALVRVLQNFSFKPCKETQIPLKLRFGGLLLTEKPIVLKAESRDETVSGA
structure (smiles),measurement,setting,value
C[C@]12C=CC(=O)C=C1CC[C@H]1[C@@H]3C[C@@H](O)[C@](O)(C(=O)CO)[C@@]3(C)C[C@H](O)[C@@]12F,Potency,[1],"inconclusive: 12.3 µM [inhibitor, partial curve]"
same,Potency,[2],inactive
same,Potency,[3],inactive
same,Potency,[4],"inconclusive: 29.1 µM [cytotoxic, single point]"
CCOC(=O)COc1ccc2c(C)c(CCN(CC)CC)c(=O)oc2c1Cl,Potency,[1],"inconclusive: 27.5 µM [inhibitor, single point]"
same,Potency,[2],"inconclusive: 29.9 µM [cytotoxic, single point]"
same,Potency,[3],"inconclusive: 23.7 µM [cytotoxic, single point]"
same,Potency,[4],"inconclusive: 29.1 µM [cytotoxic, single point]"
CCc1nc(N)nc(N)c1-c1ccc(Cl)cc1,Potency,[1],"inconclusive: 30.9 µM [inhibitor, single point]"
same,Potency,[2],"active: 3.76 µM and inconclusive: 2.95 µM [cytotoxic, full curve]"
same,Potency,[5],"inconclusive: 11.8 µM [cytotoxic, partial curve]"
same,Potency,[6],"inconclusive: 0.935 µM [cytotoxic, full curve]"
same,Potency,[7],"inconclusive: 13.2 µM [cytotoxic, partial curve]"
same,Potency,[8],"inconclusive: 1.18 µM [cytotoxic, full curve]"
same,Potency,[9],"inconclusive: 3.32 µM [cytotoxic, full curve, poor fit]"
same,Potency,[10],active: 1.46 µM and active: 3.98 µM
CN[C@@H](C)C(=O)N[C@H](C(=O)N1CCC[C@H]1c1nc(C(=O)c2ccc(F)cc2)cs1)C1CCCCC1,Potency,[1],active: 14.1 µM
same,Potency,[2],"inconclusive: 16.6 µM [cytotoxic, partial curve]"
same,Potency,[3],active: 1.05 µM
same,Potency,[4],inactive
CCC(C)(Oc1ccc(C2(c3ccc(OC(C)(CC)C(=O)O)cc3)CCCCC2)cc1)C(=O)O (stereo not given),Potency,[1],inactive
same,Potency,[2],"inconclusive: 1.1 nM and inconclusive: 18.4 µM [cytotoxic, single point]"
same,Potency,[11],inactive
same,Potency,[6],inactive
same,Potency,[8],inactive
C[N+]1(C)CCC(=C(c2ccccc2)c2ccccc2)CC1,Potency,[1],inactive
same,Potency,[2],inactive
same,Potency,[3],inactive
same,Potency,[4],inactive
CN(C)CCN(Cc1ccccc1)c1ccccn1,Potency,[1],active: 6.92 µM
same,Potency,[2],inactive
same,Potency,[3],"inconclusive: 18.8 µM [cytotoxic, single point]"
same,Potency,[4],"inconclusive: 20.6 µM [cytotoxic, single point]"
CCn1c(=O)c2c(nc(C=Cc3ccc(OC)c(OC)c3)n2C)n(CC)c1=O,Potency,[1],"inconclusive: 8.71 µM [inhibitor, partial curve, poor fit]"
same,Potency,[2],inactive
same,Potency,[11],"inconclusive: 11.8 µM [cytotoxic, partial curve]"
same,Potency,[5],"inconclusive: 13.2 µM [cytotoxic, partial curve]"
same,Potency,[6],"inconclusive: 10.5 µM [cytotoxic, full curve]"
same,Potency,[12],inactive
same,Potency,[13],inactive
CCCCC/C(C=O)=C\c1ccccc1,Potency,[1],inactive
same,Potency,[2],inactive
same,Potency,[3],inactive
same,Potency,[4],"inconclusive: 5.17 µM [cytotoxic, full curve, poor fit]"
OC1(c2ccccc2)CCNCC1,Potency,[1],inactive
same,Potency,[2],inactive
same,Potency,[3],"inconclusive: 0.75 µM [cytotoxic, full curve, poor fit]"
same,Potency,[4],inactive
Cc1cc2cc3c(C)cc(=O)oc3c(C)c2o1,Potency,[1],"inconclusive: 4.36 µM [inhibitor, partial curve, poor fit]"
same,Potency,[2],inactive
same,Potency,[5],inactive
same,Potency,[14],inactive
same,Potency,[12],inactive
same,Potency,[8],inactive
same,Potency,[13],inactive
same,Potency,[4],"inconclusive: 4.11 µM [cytotoxic, full curve]"
N=C(N)c1ccc(OCCCOc2ccc(C(=N)N)cc2)cc1,Potency,[1],"inconclusive: 43.6 µM [inhibitor, partial curve, poor fit]"
same,Potency,[2],"inconclusive: 29.9 µM [cytotoxic, single point]"
same,Potency,[3],"inconclusive: 26.6 µM [cytotoxic, single point]"
same,Potency,[4],"inconclusive: 10.3 µM [cytotoxic, partial curve]"
Cc1ccc(S(=O)(=O)NC(=O)NN2CC3CCCC3C2)cc1 (stereo not given),Potency,[1],inactive
same,Potency,[2],inactive
same,Potency,[11],"inconclusive: 13.2 µM [cytotoxic, partial curve]"
same,Potency,[5],"inconclusive: 13.2 µM [cytotoxic, partial curve]"
same,Potency,[6],"inconclusive: 11.8 µM [cytotoxic, partial curve]"
same,Potency,[9],active: 2.96 µM
CCCCCCCCCCCCOCCO,Potency,[1],"inconclusive: 6.92 µM [inhibitor, partial curve]"
same,Potency,[2],"inconclusive: 29.9 µM [cytotoxic, single point]"
same,Potency,[3],"inconclusive: 29.9 µM [cytotoxic, single point]"
same,Potency,[4],inactive
